# PubChem BioAssay AID686978 (National Center for Advancing Translational Sciences (NCATS), 2013)
# The whole screen tested about 420,000 compounds, of which about 64,000 (15%) were called active. Inconclusive means that the source gave no clear call. Such entries were picked first, then a sample of the others. Calls follow the shape of the dose curve; as a rule, active = well fitted inhibition curve with a large enough effect; inconclusive = small, poorly fitted or top-dose-only effect; inactive = flat fitted curve, though single readings scatter. Potencies of inconclusive entries are left out as doubtful fits.
# Test: qHTS for Inhibitors of human tyrosyl-DNA phosphodiesterase 1 (TDP1): qHTS in cells in absence of CPT; also: nearly all actives have a fitted effect of over 55% in size
# Details: DT40 Tdp1-/- hTDP1 cells, no CPT, ATP luminescence, 48 h; activity change, negative = growth inhibition: at 46.2 µM (top of the series) unless noted
# Procedure, shortened: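 Luminescent ATP content (CellTiter-Glo) served as the growth readout. Knockout chicken DT40 cells expressing human TDP1 were exposed to compounds without camptothecin for a minimum 48 hr at 37 °C.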
# % is scaled to controls: 0 for no effect and ±100 for the full control effect; potency is read from the fitted curve at half-maximal effect; tags tell the direction and shape of the fitted curve.
Structure (SMILES),Potency,"activity change, negative = growth inhibition"
CCCCCCCCCCn1cc(C(C)=O)c(=O)[nH]c1=O,inactive,
Cc1cc(S(=O)(=O)N2CCCC(C(=O)Nc3ccc(C(=O)O)cc3)C2)ccc1Cl (stereo not drawn),inactive,
Cc1ccccc1NS(=O)(=O)c1ccc(OCC(=O)NCc2cccnc2)cc1,inactive,
COc1ccc(-c2[nH]ncc2C(=O)NCc2cccc(Cl)c2)cc1,"inconclusive [inhibitor, single point]",
O=C(CSc1nc2ccccc2[nH]1)N1c2ccccc2Sc2ccccc21,"inconclusive [inhibitor, single point]",
O=C(NCC(c1cccnc1)N1CCOCC1)C(=O)Nc1ccc(Cl)cc1 (stereo not drawn),"inconclusive [inhibitor, single point]",
COc1ccc(OCC(O)CN2CC(C)OC(C)C2)cc1 (stereo not drawn),inactive,
NC(=O)c1ccc(SCC(=O)OCC(=O)NCc2cccs2)c([N+](=O)[O-])c1,inactive,
COc1cc(C2Nc3cccc4cccc(c34)N2)ccc1O,"inconclusive [inhibitor, partial curve, poor fit]",
COc1ccc2nc(SCC(=O)NCC3CCCO3)c(C#N)cc2c1 (stereo not drawn),"inconclusive [inhibitor, single point]",
Cc1ccc2nc(-c3cccc(NC(=O)c4cccc5c(Cl)cccc45)c3)oc2c1,"inconclusive [inhibitor, single point]",
O=C(/C=C/c1cccc([N+](=O)[O-])c1)NCCN1C(=O)S/C(=C\c2cccnc2)C1=O,"inconclusive [inhibitor, partial curve]",
O=C(Nc1nnc(-c2ccco2)o1)c1ccc(Cl)cc1,active: 13 µM,
O=C(Oc1ccc(N(Cc2cccs2)C2=NS(=O)(=O)c3ccccc32)cc1)c1ccc(Cl)cc1,active: 18.4 µM,
CC1CN(S(=O)(=O)c2cc(C(=O)N3CCCCC3C)ccc2Cl)CC(C)O1 (stereo not drawn),active: 1.84 µM,
Nc1ccc(/C=C/c2nc3ccccc3s2)cc1,active: 12.6 µM,
S=C1NC2(CCCCC2)Cc2ccccc21,"inconclusive [inhibitor, single point]",
CCc1ccc(CNC(=O)c2cnc(N3CCCCC3)c3ccccc23)cc1,active: 25.9 µM,
COc1ccc(NC(=O)/C(C#N)=C/c2ccc(-c3ccc(Cl)c(C(=O)O)c3)o2)cc1,"inconclusive [inhibitor, single point]",
COc1ccc(-n2c(-c3ccccc3)nc(=S)c3c2CCCC3)cc1,"inconclusive [inhibitor, single point]",
CC(=O)N1CCN(C(=O)c2ccc(S(=O)(=O)Nc3cccc(C(F)(F)F)c3)cc2)CC1,"inconclusive [inhibitor, single point]",
COc1ccc(S(=O)(=O)Nc2cccc(-c3ccc(N4CCCCCC4)nn3)c2)cc1F,"inconclusive [inhibitor, partial curve]",
CCOC(=O)C1=C(C)N[C@@]2(O)c3ccccc3C(=O)[C@@]12O,inactive,
Cc1c(NC(=O)/C(=C/c2cccs2)c2cccs2)c(=O)n(-c2ccccc2)n1C,"inconclusive [inhibitor, partial curve, poor fit]",
C=CCn1c(-c2ccccc2OC)n[nH]c1=S,inactive,

Structure (SMILES),Potency,"activity change, negative = growth inhibition"
Cc1ccc(N(C(=O)CNC(=O)c2ccco2)C(C(=O)NC2CCCC2)c2cccnc2)cc1 (stereo not drawn),inactive,
CC(=O)NC(NC(=S)Nc1ccc(N=Nc2ccccc2)cc1)C(Cl)(Cl)Cl (stereo not drawn),"inconclusive [inhibitor, single point]",
Cc1ccccc1NC(=O)c1c(Cl)nc(C)c(Cl)c1C,inactive,
Cc1cccc(NC(=O)C23CCC(C)(C2Br)C3(C)C)c1 (stereo not drawn),"inconclusive [inhibitor, single point]",
O=S(=O)(c1ccc(C2CCCCC2)cc1)N1CCN(c2ncccn2)CC1,"inconclusive [inhibitor, single point]",
COc1ccc(NC(=O)Nc2ccc(F)cc2F)c(C)c1,"inconclusive [inhibitor, single point]",
COC1=C/C(=C/c2c(N)n3c(nc2=O)sc2cc(S(C)(=O)=O)ccc23)C=CC1=O,"inconclusive [inhibitor, partial curve, poor fit]",
Cc1cccc(-c2c3c(=O)n(C)c(=O)n(C)c3cn2-c2ccc(O)cc2)c1,"inconclusive [inhibitor, partial curve, poor fit]",
COc1ccccc1N(CC(O)COc1c(C)cc(C)cc1C)S(=O)(=O)c1ccccc1 (stereo not drawn),"inconclusive [inhibitor, single point]",
Cc1c(Cc2ccccc2)sc(/N=C/c2c(O)ccc3ccccc23)c1C(N)=O,"inconclusive [inhibitor, single point]",
O=C(Nc1ccccc1)c1cc(C2COCCN2C(=O)c2cccs2)on1 (stereo not drawn),inactive,
Cc1ccc(Sc2ncccc2C(=O)NCc2cc([N+](=O)[O-])ccc2O)cc1C,"inconclusive [inhibitor, single point]",
Cc1ccn(CCNC(=O)C2CCC(=O)N(CCc3ccc(Cl)cc3)C2)n1 (stereo not drawn),inactive,
Nc1nnn(CC(=O)N/N=C/c2ccc(O)cc2)n1,inactive,
O=[N+]([O-])c1ccc(NCCc2ccccc2)c(Br)c1,"inconclusive [inhibitor, single point]",
COc1ccc(S(=O)(=O)Nc2ccc(F)c(Cl)c2)cc1OC,"inconclusive [inhibitor, single point]",
COc1cccc(/C=C/C(=O)Nc2ccccc2N2CCOCC2)c1,"inconclusive [inhibitor, single point]",
COc1cccc(-n2nnc3c(=O)n(C/C=C/c4ccccc4)cnc32)c1,inactive,
Cc1cc(C)n2nc(-c3ccsc3-n3c(C)ccc3C)cc2n1,"inconclusive [inhibitor, partial curve]",
COc1ccc(-c2cc3c(c4c2ccn4C)C2CCC3O2)cn1 (stereo not drawn),active: 16.4 µM,
CCOC(=O)C1CCN(C(=S)Nc2cc(C)ccc2C)CC1,,inconclusive: -32% [inhibitor]
OCCCN=c1cc(-c2ccccc2)oc2ccc(Cl)cc12,active: 18.4 µM,
CCN1CCN(Cc2c(C(=O)N/N=C(\C)c3ccc(Cl)cc3)nnn2-c2nonc2N)CC1,inactive,
O=C(Nc1nc2ccccc2[nH]1)c1ccccc1OC(F)F,"inconclusive [inhibitor, single point]",
CC(C)c1ccc(S(=O)(=O)c2cn(CC(=O)Nc3ccc(F)cc3)c3ccccc3c2=O)cc1,inactive,

Structure (SMILES),Potency,"activity change, negative = growth inhibition"
O=C(c1ccccc1F)N(Cc1ccccc1)Cc1ccccc1,"inconclusive [inhibitor, single point]",
C=CCOC(=O)C1=C[C@H](c2ccc(Br)cc2)[C@@H](CCCO)[C@H](OCC)O1,,inconclusive: -30.2% [inhibitor]
CC1CCN(S(=O)(=O)c2cc(C(=O)NCc3ccc(N(C)C)cc3)n(C)c2)CC1,"inconclusive [inhibitor, partial curve]",
CC(=O)NCCC1CCN(C(=O)c2cc(COc3ccc(C)nc3)on2)CC1,inactive,
CC(C)C(c1nnnn1C1CCCCC1)N1CCN(c2ncccn2)CC1 (stereo not drawn),"inconclusive [inhibitor, single point]",
C/C(=N\NC(=O)CC#N)c1ccc(Oc2ccccc2)cc1,"inconclusive [inhibitor, single point]",
C/C(=N\Nc1nc2ccccc2[nH]1)c1ccc(Cl)s1,active: 23.1 µM,
CCn1cc(C(=O)NCc2ccc3c(c2)OCO3)c(=O)c2cc(S(=O)(=O)N(C)C)ccc21,active: 18.4 µM,
Cc1nnsc1C(=O)Nc1cccc(Cl)c1,inactive,
O=C1c2ccccc2C(=O)N1CCCCSc1nc2ccccc2c(=O)n1CCCN1CCOCC1,"inconclusive [inhibitor, single point]",
COCCCNC(=O)CCCN1C(=O)CCn2nc(-c3cccn3C)cc21,inactive,
O=C(Nc1ccccc1)C1=C[C@@H](c2ccc(Br)cc2)C[C@@H](OCCCCO)O1,"inconclusive [inhibitor, single point]",
Cc1ccc(C)c(N(CC(=O)NC(C)(C)C)C(=O)CNC(=O)c2cccs2)c1,inactive,
CCc1cccc(C)c1NC(=O)CCCN1C(=O)CN(C)C1=O,inactive,
CCc1ccccc1NC(=O)Cn1c(=O)n(Cc2ccccc2)c(=O)c2c(C)c(C(=O)N(C)C)sc21,inactive,
O=C(Nc1ccccc1)c1ccc(CSc2ccccn2)cc1,"inconclusive [inhibitor, partial curve]",
Cn1c(SCC(=O)NC2CCCCC2)nnc1-c1cc2cc(Cl)ccc2o1,"inconclusive [inhibitor, single point]",
Cc1ccccc1-c1nnc(SCC(=O)c2c(N)n(C3CC3)c(=O)[nH]c2=O)o1,"inconclusive [inhibitor, single point]",
Cc1csc2nc(-c3ccc(NS(=O)(=O)c4cccc(F)c4)cc3)cn12,active: 16.4 µM,
NS(=O)(=O)c1cccc(NC(=O)Nc2ccc(Cl)cc2)c1,inactive,
O=C(Nc1ccc(F)cc1)c1cn(-c2ccccc2)nc1-c1ccncc1,,inconclusive: -34.4% [inhibitor]
CCCN1CCN(C(=O)c2ccc(F)c(S(=O)(=O)N3CCOCC3)c2)CC1,inactive,
Cc1ccc(-c2n[nH]c3c2C(c2ccccc2Cl)N(c2ccc(C(=O)O)cc2)C3=O)cc1 (stereo not drawn),"inconclusive [inhibitor, single point]",
